In the supplement of paper PMC8728848:
Some of the results follow.

Key:
Experiment in all cases: glycan array binding signal (z-score within array); higher = stronger binding
Conditions in all cases: glycan notation: IUPAC condensed, linker removed
[1] = molecular target: Fuc(a1-2)Gal
Summary of the method: (§1)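 The binding signal is a Z-score computed within each array. Data were drawn from 3228 arrays in the Consortium for Functional Glycomics database, restricted to those with a known protein sequence. Scores were averaged over arrays of the same protein sequence at different concentrations or buffers, and over linkers, and negative values can be taken as non-binding.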

[2] = molecular target: Fuc(a1-2)Gal(b1-3)GalNAc
Summary of the method: as §1

[3] = molecular target: Fuc(a1-2)Gal(b1-3)GalNAc(a1-3)[Fuc(a1-2)]Gal(b1-4)Glc
Summary of the method: as §1

[4] = molecular target: Fuc(a1-2)Gal(b1-3)GalNAc(a1-3)[Fuc(a1-2)]Gal(b1-4)GlcNAc
Summary of the method: as §1

[5] = molecular target: Fuc(a1-2)Gal(b1-3)GalNAc(b1-3)Gal
Summary of the method: as §1

[6] = molecular target: Fuc(a1-2)Gal(b1-3)GalNAc(b1-3)Gal(a1-4)Gal(b1-4)Glc
Summary of the method: as §1

[7] = molecular target: Fuc(a1-2)Gal(b1-3)GalNAc(b1-4)[Neu5Ac(a2-3)]Gal(b1-4)Glc
Summary of the method: as §1

[8] = molecular target: Fuc(a1-2)Gal(b1-3)GlcNAc
Summary of the method: as §1

[9] = molecular target: Fuc(a1-2)Gal(b1-3)GlcNAc(b1-2)Man(a1-3)[Fuc(a1-2)Gal(b1-3)GlcNAc(b1-2)Man(a1-6)]Man(b1-4)GlcNAc(b1-4)GlcNAc
Summary of the method: as §1

[10] = molecular target: Fuc(a1-2)Gal(b1-3)GlcNAc(b1-2)Man(a1-3)[Fuc(a1-2)Gal(b1-3)GlcNAc(b1-2)Man(a1-6)]Man(b1-4)GlcNAc(b1-4)[Fuc(a1-6)]GlcNAc
Summary of the method: as §1

[11] = molecular target: Fuc(a1-2)Gal(b1-3)GlcNAc(b1-3)Gal(b1-4)Glc
Summary of the method: as §1

[12] = molecular target: Fuc(a1-2)Gal(b1-3)GlcNAc(b1-3)GalNAc
Summary of the method: as §1

[13] = molecular target: Fuc(a1-2)Gal(b1-3)GlcNAc(b1-3)[Fuc(a1-2)Gal(b1-3)GlcNAc(b1-6)]GalNAc
Summary of the method: as §1

[14] = molecular target: Fuc(a1-2)Gal(b1-3)GlcNAc(b1-3)[Gal(b1-4)GlcNAc(b1-6)]Gal(b1-4)Glc
Summary of the method: as §1

[15] = molecular target: Fuc(a1-2)Gal(b1-3)GlcNAc(b1-3)[Neu5Ac(a2-6)Gal(b1-4)GlcNAc(b1-6)]Gal(b1-4)Glc
Summary of the method: as §1

[16] = molecular target: Fuc(a1-2)Gal(b1-3)GlcNAc6S
Summary of the method: as §1

[17] = molecular target: Fuc(a1-2)Gal(b1-3)[Fuc(a1-4)]GlcNAc
Summary of the method: as §1

[18] = molecular target: Fuc(a1-2)Gal(b1-3)[Fuc(a1-4)]GlcNAc(b1-2)Man(a1-3)[Fuc(a1-2)Gal(b1-3)[Fuc(a1-4)]GlcNAc(b1-2)Man(a1-3)]Man(b1-4)GlcNAc(b1-4)GlcNAc
Summary of the method: as §1

[19] = molecular target: Fuc(a1-2)Gal(b1-3)[Fuc(a1-4)]GlcNAc(b1-2)Man(a1-3)[Fuc(a1-2)Gal(b1-3)[Fuc(a1-4)]GlcNAc(b1-2)Man(a1-6)]Man(b1-4)GlcNAc(b1-4)[Fuc(a1-6)]GlcNAc(b1-4)[Fuc(a1-6)]GlcNAc
Summary of the method: as §1

[20] = molecular target: Fuc(a1-2)Gal(b1-3)[Fuc(a1-4)]GlcNAc(b1-3)[Fuc(a1-3)[Gal(b1-4)]GlcNAc(b1-6)]Gal(b1-4)Glc
Summary of the method: as §1

[21] = molecular target: Fuc(a1-2)Gal(b1-3)[Fuc(a1-4)]GlcNAc(b1-3)[Gal(b1-4)GlcNAc(b1-6)]Gal(b1-4)Glc
Summary of the method: as §1

[22] = molecular target: Fuc(a1-2)Gal(b1-4)Glc
Summary of the method: as §1

[23] = molecular target: Fuc(a1-2)Gal(b1-4)Glc6S
Summary of the method: as §1

[24] = molecular target: Fuc(a1-2)Gal(b1-4)GlcNAc
Summary of the method: as §1

[25] = molecular target: Fuc(a1-2)Gal(b1-4)GlcNAc(b1-2)Man
Summary of the method: as §1

[26] = molecular target: Fuc(a1-2)Gal(b1-4)GlcNAc(b1-2)Man(a1-3)[Fuc(a1-2)Gal(b1-4)GlcNAc(b1-2)Man(a1-6)]Man(b1-4)GlcNAc(b1-4)GlcNAc
Summary of the method: as §1

[27] = molecular target: Fuc(a1-2)Gal(b1-4)GlcNAc(b1-2)Man(a1-3)[Fuc(a1-2)Gal(b1-4)GlcNAc(b1-2)Man(a1-6)]Man(b1-4)GlcNAc(b1-4)[Fuc(a1-6)]GlcNAc
Summary of the method: as §1

[28] = molecular target: Fuc(a1-2)Gal(b1-4)GlcNAc(b1-2)[Fuc(a1-2)Gal(b1-4)GlcNAc(b1-4)]Man(a1-3)[Fuc(a1-2)Gal(b1-4)GlcNAc(b1-2)Man(a1-6)]Man(b1-4)GlcNAc(b1-4)GlcNAc
Summary of the method: as §1

[29] = molecular target: Fuc(a1-2)Gal(b1-4)GlcNAc(b1-3)Gal(b1-4)GlcNAc
Summary of the method: as §1

[30] = molecular target: Fuc(a1-2)Gal(b1-4)GlcNAc(b1-3)Gal(b1-4)GlcNAc(b1-2)Man(a1-3)[Fuc(a1-2)Gal(b1-4)GlcNAc(b1-3)Gal(b1-4)GlcNAc(b1-2)Man(a1-6)]Man(b1-4)GlcNAc(b1-4)GlcNAc
Summary of the method: as §1

[31] = molecular target: Fuc(a1-2)Gal(b1-4)GlcNAc(b1-3)Gal(b1-4)GlcNAc(b1-3)Gal(b1-4)GlcNAc
Summary of the method: as §1

[32] = molecular target: Fuc(a1-2)Gal(b1-4)GlcNAc(b1-3)GalNAc
Summary of the method: as §1

[33] = molecular target: Fuc(a1-2)Gal(b1-4)GlcNAc(b1-3)[Fuc(a1-2)Gal(b1-4)GlcNAc(b1-6)]GalNAc
Summary of the method: as §1

[34] = molecular target: Fuc(a1-2)Gal(b1-4)GlcNAc(b1-3)[Fuc(a1-3)[Gal(b1-4)]GlcNAc(b1-6)]Gal(b1-4)Glc
Summary of the method: as §1

[35] = molecular target: Fuc(a1-2)Gal(b1-4)GlcNAc(b1-6)GalNAc
Summary of the method: as §1

[36] = molecular target: Fuc(a1-2)Gal(b1-4)GlcNAc6S
Summary of the method: as §1

[37] = molecular target: Fuc(a1-2)Gal(b1-4)[Fuc(a1-3)]GlcNAc
Summary of the method: as §1

[38] = molecular target: Fuc(a1-2)Gal(b1-4)[Fuc(a1-3)]GlcNAc(b1-2)Man(a1-3)[Fuc(a1-2)Gal(b1-4)[Fuc(a1-3)]GlcNAc(b1-2)Man(a1-6)]Man(b1-4)GlcNAc(b1-4)[Fuc(a1-6)]GlcNAc
Summary of the method: as §1

[39] = molecular target: Fuc(a1-2)Gal(b1-4)[Fuc(a1-3)]GlcNAc(b1-2)[Fuc(a1-2)Gal(b1-4)[Fuc(a1-3)]GlcNAc(b1-4)]Man(a1-3)[Fuc(a1-2)Gal(b1-4)[Fuc(a1-3)]GlcNAc(b1-2)Man(a1-6)]Man(b1-4)GlcNAc(b1-4)GlcNAc
Summary of the method: as §1

[40] = molecular target: Fuc(a1-2)Gal(b1-4)[Fuc(a1-3)]GlcNAc(b1-3)Gal(b1-4)[Fuc(a1-3)]GlcNAc
Summary of the method: as §1

[41] = molecular target: Fuc(a1-2)Gal(b1-4)[Fuc(a1-3)]GlcNAc(b1-3)Gal(b1-4)[Fuc(a1-3)]GlcNAc(b1-3)Gal(b1-4)[Fuc(a1-3)]GlcNAc
Summary of the method: as §1

[42] = molecular target: Fuc(a1-2)Gal(b1-4)[Fuc(a1-3)]GlcNAc(b1-3)GalNAc
Summary of the method: as §1

[43] = molecular target: Fuc(a1-2)Gal(b1-4)[Fuc(a1-3)]GlcNAc(b1-3)[Neu5Ac(a2-6)Gal(b1-4)GlcNAc(b1-6)]Gal(b1-4)Glc
Summary of the method: as §1

[44] = molecular target: Fuc(a1-2)Gal3S(b1-4)GlcNAc
Summary of the method: as §1

[45] = molecular target: Fuc(a1-2)Gal6S(b1-3)GlcNAc
Summary of the method: as §1

B1: RBMC1 (Vibrio cholerae) (protein)
chain: QQSQRVVTADNLMYLRSGFAIDAIGTTVNNLVGGPVQGTNGGVLRAPIALDQLQSVEVTSGLYNWGGYHIVAIKFTMKDGSSVLLGSTHYASNKKVETYTVPQGKRIKQINVWTGGWLVEGFQFVY
glycan array binding signal (z-score) [1]: -0.366
glycan array binding signal (z-score) [2]: -0.159
glycan array binding signal (z-score) [3]: -0.383
glycan array binding signal (z-score) [4]: -0.356
glycan array binding signal (z-score) [5]: -0.148
glycan array binding signal (z-score) [6]: -0.293
glycan array binding signal (z-score) [7]: -0.393
glycan array binding signal (z-score) [8]: -0.273
glycan array binding signal (z-score) [9]: 1.37
glycan array binding signal (z-score) [10]: -0.102
glycan array binding signal (z-score) [11]: -0.346
glycan array binding signal (z-score) [12]: -0.195
glycan array binding signal (z-score) [13]: 0.134
glycan array binding signal (z-score) [14]: -0.206
glycan array binding signal (z-score) [15]: -0.436
glycan array binding signal (z-score) [16]: -0.359
glycan array binding signal (z-score) [17]: -0.374
glycan array binding signal (z-score) [18]: -0.195
glycan array binding signal (z-score) [19]: -0.317
glycan array binding signal (z-score) [20]: -0.178
glycan array binding signal (z-score) [21]: -0.176
glycan array binding signal (z-score) [22]: -0.346
glycan array binding signal (z-score) [23]: -0.119
glycan array binding signal (z-score) [24]: -0.362
glycan array binding signal (z-score) [25]: -0.233
glycan array binding signal (z-score) [26]: 0.229
glycan array binding signal (z-score) [27]: -0.042
glycan array binding signal (z-score) [28]: -0.074
glycan array binding signal (z-score) [29]: -0.313
glycan array binding signal (z-score) [30]: 2.16
glycan array binding signal (z-score) [31]: -0.261
glycan array binding signal (z-score) [32]: -0.391
glycan array binding signal (z-score) [33]: -0.353
glycan array binding signal (z-score) [34]: -0.425
glycan array binding signal (z-score) [35]: -0.105
glycan array binding signal (z-score) [36]: -0.261
glycan array binding signal (z-score) [37]: -0.347
glycan array binding signal (z-score) [38]: 0.113
glycan array binding signal (z-score) [39]: -0.111
glycan array binding signal (z-score) [40]: -0.321
glycan array binding signal (z-score) [41]: -0.201
glycan array binding signal (z-score) [42]: -0.306
glycan array binding signal (z-score) [43]: -0.396
glycan array binding signal (z-score) [44]: -0.111
glycan array binding signal (z-score) [45]: -0.281
